Results reported in PMC9225989 (Signal Transduction and Targeted Therapy, 2022).
Results are given in words; binding and its absence hold for the method and conditions named. Binding seen in cells or lysates may run through a third protein. Some binding calls cover weakened binding; strength is not graded here. For some of these results: Sequences can lack the tags named with a protein.

The chains behind the UniProt entries cited, without tags or fusion partners.
UniProt Q8R4B8: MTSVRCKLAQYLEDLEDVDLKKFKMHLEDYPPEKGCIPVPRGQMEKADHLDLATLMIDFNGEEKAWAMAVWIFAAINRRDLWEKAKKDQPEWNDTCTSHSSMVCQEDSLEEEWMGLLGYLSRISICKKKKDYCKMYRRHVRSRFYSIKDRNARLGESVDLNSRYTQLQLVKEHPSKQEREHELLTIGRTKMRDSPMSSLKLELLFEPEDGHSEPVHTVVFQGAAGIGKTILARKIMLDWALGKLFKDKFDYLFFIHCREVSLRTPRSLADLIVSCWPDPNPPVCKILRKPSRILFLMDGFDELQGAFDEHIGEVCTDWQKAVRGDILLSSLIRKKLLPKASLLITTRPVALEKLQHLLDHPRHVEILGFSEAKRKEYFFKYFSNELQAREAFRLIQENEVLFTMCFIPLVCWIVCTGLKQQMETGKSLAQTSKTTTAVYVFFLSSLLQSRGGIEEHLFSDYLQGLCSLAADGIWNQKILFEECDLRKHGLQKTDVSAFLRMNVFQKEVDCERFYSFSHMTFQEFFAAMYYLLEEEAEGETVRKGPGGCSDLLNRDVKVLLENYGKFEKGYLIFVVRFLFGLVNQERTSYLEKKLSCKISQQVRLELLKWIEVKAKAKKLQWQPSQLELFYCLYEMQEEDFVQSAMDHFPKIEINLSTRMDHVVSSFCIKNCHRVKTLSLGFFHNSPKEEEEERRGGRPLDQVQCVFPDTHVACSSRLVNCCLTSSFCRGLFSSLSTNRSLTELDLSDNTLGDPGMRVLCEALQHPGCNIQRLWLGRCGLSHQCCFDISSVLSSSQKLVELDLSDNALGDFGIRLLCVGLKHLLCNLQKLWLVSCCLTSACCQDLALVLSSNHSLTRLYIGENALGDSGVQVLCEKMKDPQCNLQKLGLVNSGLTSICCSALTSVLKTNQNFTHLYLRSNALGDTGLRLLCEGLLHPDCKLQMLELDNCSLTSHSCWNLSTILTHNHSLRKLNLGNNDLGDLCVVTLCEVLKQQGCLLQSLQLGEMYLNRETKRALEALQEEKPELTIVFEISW

B1: His-tagged GSDMD (expressed in HEK293T cells) (protein, UniProt Q9D8T2 1-487)
chain: MPSAFEKVVKNVIKEVSGSRGDLIPVDSLRNSTSFRPYCLLNRKFSSSRFWKPRYSCVNLSIKDILEPSAPEPEPECFGSFKVSDVVDGNIQGRVMLSGMGEGKISGGAAVSDSSSASMNVCILRVTQKTWETMQHERHLQQPENKILQQLRSRGDDLFVVTEVLQTKEEVQITEVHSQEGSGQFTLPGALCLKGEGKGHQSRKKMVTIPAGSILAFRVAQLLIGSKWDILLVSDEKQRTFEPSSGDRKAVGQRHHGLNVLAALCSIGKQLSLLSDGIDEEELIEAADFQGLYAEVKACSSELESLEMELRQQILVNIGKILQDQPSMEALEASLGQGLCSGGQVEPLDGPAGCILECLVLDSGELVPELAAPIFYLLGALAVLSETQQQLLAKALETTVLSKQLELVKHVLEQSTPWQEQSSVSLPTVLLGDCWDEKNPTWVLLEECGLRLQVESPQVHWEPTSLIPTSALYASLFLLSSLGQKPC
B2: HA-tagged Casp1 (expressed in HEK293T cells) (enzyme, UniProt P29452 1-402)
chain: MADKILRAKRKQFINSVSIGTINGLLDELLEKRVLNQEEMDKIKLANITAMDKARDLCDHVSKKGPQASQIFITYICNEDCYLAGILELQSAPSAETFVATEDSKGGHPSSSETKEEQNKEDGTFPGLTGTLKFCPLEKAQKLWKENPSEIYPIMNTTTRTRLALIICNTEFQHLSPRVGAQVDLREMKLLLEDLGYTVKVKENLTALEMVKEVKEFAACPEHKTSDSTFLVFMSHGIQEGICGTTYSNEVSDILKVDTIFQMMNTLKCPSLKDKPKVIIIQACRGEKQGVVLLKDSVRDSEEDFLTDAIFEDDGIKKAHIEKDFIAFCSSTPDNVSWRHPVRGSLFIESLIKHMKEYAWSCDLEDIFRKVRFSFEQPEFRLQMPTADRVTLTKRFYLFPGH
B3: Casp1, endogenous in mouse HL-1 myocytes (enzyme, UniProt P29452 1-402)
chain: B2 chain
B4: GSDMD, endogenous in mouse HL-1 myocytes (protein, UniProt Q9D8T2 1-487)
chain: B1 chain
B5: His-tagged GSDMD (expressed in HL-1 cells) (protein, UniProt Q9D8T2 1-487)
chain: B1 chain
B6: HA-tagged Casp1 (expressed in HL-1 cells) (enzyme, UniProt P29452 1-402)
chain: B2 chain
B7: NLRP1b, endogenous in mouse HL-1 myocytes (protein, UniProt Q2LKW6 1-1233)
chain: MEESPPKQKSNTKVAQHEGQQDLNTTRHMNVELKHRPKLERHLKLGMIPVVYMKQGEEILYPAQSLREENLIQNFTSLLLLQKLCPKDPENMIRKSWASCVPEEGGHMINIQDLFGPNIGTQKEPQLVIIEGAAGIGKSTLARLVKRAWKEGQLYRDHFQHVFFFSCRELAQCKKLSLAELIAQGQEVPTAPINQILSHPEKLLFILDGIDEPAWVLADQNPELCLHWSQRQPVHTLLGSLLGKSILPEAFFLLTTRTTALQKFIPSLPMPCQVEVLGFSGIERENYFYKYFANQRHAITAFMMVESNPVLLTLCEVPWVCWLVCTCLKKQMEQGRVLSLKSQTTTALCLKYLSLTIPDKHRRTQVKALCSLAAEGIWKRRTLFSESDLCKQGLDEDAVATFLKTGVLQKQASSLSYSFAHLCLQEFFAAISCILEDSEERHGNMEMDRIVETLVERYGRQNLFEAPTVRFLFGLLGKEGVKGMEKLFSCSLHGKTNLKLLWHILVKSQPHQPPCLGLLHCLYENQDMELLTHVMHDLQGTIVPGPNDTAHTVLQTNVKHLVVQTDMELMVATFCIQFYCHVRTLQLNMEKQQGYALISPRMVLYRWTPITNASWEILFYNLKFTRNLEGLDLSGNSLRYSVVQSLCNTLRYPGCQLKTLWLVKCGLTSRYCSLLASVLSAHSSLTELYLQLNDLGDDGVRMLCEGLRNPVCNLSILWLDLSSLSAQVITELRTLEEKNPKLYIRSIWMPHMMVPTENMDEEAILTTLKQQRQESGDKPMEILGTEEDFWGPTGPVATELVDRVRNLYRMPQMMVPTENMDEEDILTSFKQQRQQSGANPMEILGTEEDFWGPIGPVATEVVYRERNLYRVQLPMAGSYHCPSTRLHFVVTRAVTIEIEFCAWSQFLDKTPLQQSHMVVGPLFDIKAEQGAVTAVYLPHFVSLKDTKASTFDFKVAHFQEHGMVLETPDRVKPGYTVLKNPSFSPMGVVLRIIPAARHFIPITSITLIYYRVNQEEVTLHLYLVPNDCTIQKAIDDEEMKFQFVRINKPPPVDNLFIGSRYIVSGSENLEITPKELELCYRSSKEFQLFSEIYVGNMGSEIKLQIKNKKHMKLIWEALLKPGDLRPALPRIAQALKDAPSLLHFMDQHREQLVARVTSVDPLLDKLHGLVLNEESYEAVRAENTNQDKMRKLFNLSRSWSRACKDLFYQALKETHPHLVMDLLEKSGGVSLGS

Legend:
[1] = molecular target: CB1R-Mutant 4 (CB1R-M4, Δ1-209), truncation of Flag-tagged CB1R (mouse) (UniProt P47746); test: co-IP; HEK293T cells transfected with CB1R-M3 or CB1R-M4 together with each of the recombinant pyroptosis plasmids
[2] = molecular target: CB1R-Mutant 3 (CB1R-M3, Δ1-176), truncation of Flag-tagged CB1R (mouse) (UniProt P47746); test: as above
[3] = molecular target: cannabinoid receptor 1 (CB1R), endogenous in mouse HL-1 myocytes (mouse (endogenous in HL-1)) (UniProt P47746); test: co-IP; endogenous proteins in mouse HL-1 cells; precipitation with a CB1R antibody; compared Lv-vector with Lv-CB1R cells and WT with Cb1r-/- cells
[4] = molecular target: Flag-tagged CB1R, full length (CB1R-FL, 1-473 amino acids) (mouse) (UniProt P47746); test: co-IP; HL-1 cells co-transfected with the Flag-tagged Cb1r plasmid and one of the Myc-Nlrp3, His-Gsdmd, HA-Casp1 or GST-Asc plasmids; precipitation with anti-Flag antibody, and the reverse

Molecule	binding [1]	binding [2]	binding [3]	binding [4]
Myc-tagged NLRP3 (expressed in HEK293T cells) (from UniProt Q8R4B8 1-1033)	no binding	binds	–	–
NLRP3, endogenous in mouse HL-1 myocytes (from UniProt Q8R4B8 1-1033)	–	–	binds	–
Myc-tagged NLRP3 (expressed in HL-1 cells) (from UniProt Q8R4B8 1-1033)	–	–	–	binds
B1	no binding	binds	–	–
B2	no binding	binds	–	–
B3	–	–	binds	–
B4	–	–	binds	–
B5	–	–	–	binds
B6	–	–	–	binds
B7	–	–	no binding	–
